The supplement of paper PMC4967469
The IC50 comes from the fitted curve, where viability falls to half of the control; fits outside the tested doses are given as limits. The AUC spans the tested range (256-fold, ending at the top dose) of the same fit; the more sensitive the line, the further below 1. An inferred top dose was derived from the fitted curves, not read from the paper.

Assays:
Assay in all cases: Viability of human cancer cell lines after 72 h of drug (GDSC screen)
[1] = compound: C=CC(=O)N1CCc2ccc(-n3c(=O)ccc4cnc5ccc(-c6cnn(C)c6)cc5c43)cc21 [QL-XII-47]; details: top dose 10.24 µM; top dose inferred
Experimental: (§1)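 Human cancer cell lines in 384-well plates, medium with 10% serum, drug for 72 h over a 256-fold dose range (nine 2-fold or five 4-fold steps up to the top dose). Adherent lines were fixed and stained with the nucleic acid dye Syto60, suspension lines read with resazurin; signal relative to control wells, capped at 0 and 100%. One two-parameter sigmoid per drug and line, fitted in a mixed model over all curves with the slope shared within a line.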

[2] = compound: CCN1CCC(n2cc(CNc3cc(Cl)c4ncc(C#N)c(Nc5ccc(F)c(Cl)c5)c4c3)nn2)CC1 [KIN001-266]; details: top dose 20 µM; top dose inferred
Experimental: as §1

[3] = compound: COc1ccc(-c2cc3nccn3c(Nc3ncccc3C(N)=O)n2)cc1OC [BAY 61-3606]; details: top dose 8 µM; top dose inferred
Experimental: as §1

[4] = compound: O=C1/C(=C/c2cccs2)CC/C1=C\c1cccs1 [CCT007093]; details: top dose 6.6 µM; top dose inferred
Experimental: as §1

Row | Cell Line | AUC [1] | IC50 [1] [µM] | AUC [2] | IC50 [2] [µM] | AUC [3] | IC50 [3] [µM] | AUC [4] | IC50 [4] [µM]
1 | SUP-T1 (T-cell lymphoblastic leukaemia, suspension) | 0.592 | 1.11 | 0.873 | 16.3 | 0.746 | 2.35 | 0.99 | > 6.6
2 | SW13 (adrenal gland, adherent) | 0.988 | > 10.2 | 0.955 | > 20 | 0.958 | > 8 | 0.982 | > 6.6
3 | SW48 (large intestine, adherent) | 0.924 | > 10.2 | 0.873 | 19.1 | 0.834 | 5.17 | 0.986 | > 6.6
4 | SW156 (kidney, adherent) | 0.738 | 3.34 | 0.874 | > 20 | 0.927 | > 8 | 0.977 | > 6.6
5 | SW620 (large intestine, adherent) | 0.5 | 0.641 | 0.877 | 16.1 | 0.798 | – | 0.988 | > 6.6
6 | SW626 (ovary, adherent) | 0.39 | 0.301 | 0.817 | 13.9 | 0.954 | > 8 | 0.984 | > 6.6
7 | SW684 (fibrosarcoma, adherent) | 0.972 | > 10.2 | 0.977 | > 20 | 0.976 | > 8 | 0.958 | > 6.6
8 | SW780 (bladder, adherent) | 0.986 | > 10.2 | 0.986 | > 20 | 0.983 | > 8 | 0.971 | > 6.6
9 | SW837 (large intestine, adherent) | 0.829 | 9.41 | 0.895 | > 20 | 0.765 | 3.88 | 0.983 | > 6.6
10 | SW872 (soft tissue, adherent) | 0.737 | 2.81 | 0.884 | 18 | 0.644 | 1.2 | 0.984 | > 6.6
11 | SW900 (lung squamous cell carcinoma, adherent) | 0.863 | > 10.2 | 0.938 | > 20 | 0.973 | > 8 | 0.982 | > 6.6
12 | SW948 (large intestine, adherent) | 0.893 | > 10.2 | 0.837 | > 20 | 0.917 | > 8 | 0.982 | > 6.6
13 | SW954 (urogenital system, adherent) | 0.626 | 1.43 | 0.825 | 12.2 | 0.948 | > 8 | 0.982 | > 6.6
14 | SW962 (urogenital system, adherent) | 0.782 | 5.43 | 0.876 | > 20 | 0.898 | > 8 | 0.976 | > 6.6
15 | SW982 (soft tissue, adherent) | 0.984 | > 10.2 | 0.873 | > 20 | 0.586 | 0.867 | 0.978 | > 6.6
16 | SW1088 (glioma, adherent) | 0.901 | > 10.2 | 0.949 | > 20 | 0.982 | > 8 | 0.981 | > 6.6

Row | Cell Line | AUC [1] | IC50 [1] [µM] | AUC [2] | IC50 [2] [µM] | AUC [3] | IC50 [3] [µM] | AUC [4] | IC50 [4] [µM]
17 | SW1271 (small cell lung carcinoma, adherent) | 0.581 | 1.11 | 0.779 | 9.48 | 0.759 | 3.21 | 0.984 | > 6.6
18 | SW1417 (large intestine, adherent) | 0.979 | > 10.2 | 0.952 | > 20 | 0.986 | > 8 | 0.979 | > 6.6
19 | SW1463 (large intestine, adherent) | 0.652 | 2.29 | 0.977 | > 20 | 0.962 | > 8 | 0.957 | > 6.6
20 | SW1573 (lung adenocarcinoma, adherent) | 0.921 | > 10.2 | 0.973 | > 20 | 0.921 | > 8 | 0.963 | > 6.6
21 | SW1710 (bladder, adherent) | 0.57 | 1 | 0.855 | 16.7 | 0.699 | 1.86 | 0.956 | > 6.6
22 | SW1783 (glioma, adherent) | 0.93 | > 10.2 | 0.885 | 18.1 | 0.928 | > 8 | 0.979 | > 6.6
23 | SW1990 (pancreas, adherent) | 0.969 | > 10.2 | 0.964 | > 20 | 0.883 | > 8 | 0.985 | > 6.6
24 | Saos-2 (osteosarcoma, adherent) | 0.961 | > 10.2 | 0.973 | > 20 | 0.862 | > 8 | 0.981 | > 6.6
25 | SiHa (cervix, adherent) | 0.917 | > 10.2 | 0.982 | > 20 | 0.974 | > 8 | 0.987 | > 6.6
26 | T47D (breast, adherent) | 0.622 | 1.66 | 0.841 | > 20 | 0.915 | > 8 | 0.895 | > 6.6
27 | T84 (large intestine, adherent) | 0.731 | 2.95 | 0.873 | 19.9 | 0.772 | 3.15 | 0.986 | > 6.6
28 | T98G (glioma, adherent) | 0.954 | > 10.2 | 0.895 | > 20 | 0.958 | > 8 | 0.982 | > 6.6
29 | T-24 (bladder, adherent) | 0.747 | 3.14 | 0.87 | 17.2 | 0.924 | > 8 | 0.95 | > 6.6
30 | T-T (oesophagus, adherent) | 0.986 | > 10.2 | 0.85 | 15.1 | 0.599 | 0.934 | 0.968 | > 6.6
31 | TC-71 (Ewing sarcoma, adherent) | 0.858 | 6.24 | 0.835 | 10.2 | 0.989 | > 8 | 0.991 | > 6.6
32 | TCCSUP (bladder, adherent) | 0.779 | 4.8 | 0.867 | > 20 | 0.921 | > 8 | 0.967 | > 6.6
